Data from the supplement of paper PMC4967469.

Assays:
Test in all cases: Viability of human cancer cell lines after 72 h of drug (GDSC screen)
KU-55933 = compound: O=c1cc(-c2cccc3c2Sc2ccccc2S3)oc(N2CCOCC2)c1 [KU-55933]; conditions: top dose 10 µM
Procedure: (§1)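 Human cancer cell lines in 384-well plates, medium with 10% serum, drug for 72 h over a 256-fold dose range (nine 2-fold or five 4-fold steps up to the top dose). Adherent lines were fixed and stained with the nucleic acid dye Syto60, suspension lines read with resazurin; signal relative to control wells, capped at 0 and 100%. One two-parameter sigmoid per drug and line, fitted in a mixed model over all curves with the slope shared within a line.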

CHIR-99021 = compound: Cc1cnc(-c2cnc(NCCNc3ccc(C#N)cn3)nc2-c2ccc(Cl)cc2Cl)[nH]1 [CHIR-99021]
Procedure: as §1

Zibotentan = compound: COc1nc(C)cnc1NS(=O)(=O)c1cccnc1-c1ccc(-c2nnco2)cc1 [Zibotentan]; conditions: top dose 20 µM; top dose inferred
Procedure: as §1

ABT-888 = compound: C[C@]1(c2nc3c(C(N)=O)cccc3[nH]2)CCCN1 [ABT-888]; conditions: top dose 5 µM; top dose inferred
Procedure: as §1

QL-X-138 = compound: C=CC(=O)Nc1cc(-n2c(=O)ccc3cnc4ccc(-c5cn[nH]c5)cc4c32)ccc1C [QL-X-138]; conditions: top dose 10.24 µM; top dose inferred
Procedure: as §1

Thapsigargin = compound: C/C=C(/C)C(=O)O[C@H]1C(C)=C2[C@H]([C@@H]1OC(=O)CCCCCCC)[C@@](C)(OC(C)=O)C[C@H](OC(=O)CCC)[C@@]1(O)[C@H]2OC(=O)[C@@]1(C)O [Thapsigargin]; conditions: top dose 0.512 µM; top dose inferred
Procedure: as §1

GSK269962A = compound: CCn1c(-c2nonc2N)nc2cnc(Oc3cccc(NC(=O)c4ccc(OCCN5CCOCC5)cc4)c3)cc21 [GSK269962A]; conditions: top dose inferred
Procedure: as §1

CP466722 = compound: COc1cc2ncnc(-n3nc(-c4ccccn4)nc3N)c2cc1OC [CP466722]; conditions: top dose 16 µM; top dose inferred
Procedure: as §1

ABT-869 = compound: Cc1ccc(F)c(NC(=O)Nc2ccc(-c3cccc4[nH]nc(N)c34)cc2)c1 [ABT-869]; conditions: top dose 1.024 µM; top dose inferred
Procedure: as §1

MPS-1-IN-1 = compound: COc1cc(N2CCC(O)CC2)ccc1Nc1cc(Nc2ccccc2S(=O)(=O)C(C)C)c2cc[nH]c2n1 [MPS-1-IN-1]; conditions: top dose 20 µM; top dose inferred
Procedure: as §1

(5Z)-7-Oxozeaenol = compound: COc1cc(O)c2c(c1)/C=C/C[C@H](O)[C@H](O)C(=O)/C=C\C[C@H](C)OC2=O [(5Z)-7-Oxozeaenol]; conditions: top dose 10 µM; top dose inferred
Procedure: as §1

[1] = top dose 2.56 µM, screen: GDSC drug entry 154
[2] = top dose 10 µM, screen: GDSC drug entry 1241, top dose inferred
[3] = top dose 5 µM, screen: GDSC drug entry 1192
[4] = top dose 2.5 µM, screen: GDSC drug entry 127

Cell Line | AUC (KU-55933) | IC50 (KU-55933) [µM] | AUC (CHIR-99021; [1]) | IC50 (CHIR-99021; [1]) [µM] | AUC (CHIR-99021; [2]) | IC50 (CHIR-99021; [2]) [µM] | AUC (Zibotentan) | IC50 (Zibotentan) [µM] | AUC (ABT-888) | IC50 (ABT-888) [µM] | AUC (QL-X-138) | IC50 (QL-X-138) [µM] | AUC (Thapsigargin) | IC50 (Thapsigargin) [µM] | AUC (GSK269962A; [3]) | IC50 (GSK269962A; [3]) [µM] | AUC (CP466722) | IC50 (CP466722) [µM] | AUC (ABT-869) | IC50 (ABT-869) [µM] | AUC (MPS-1-IN-1) | IC50 (MPS-1-IN-1) [µM] | AUC ((5Z)-7-Oxozeaenol) | IC50 ((5Z)-7-Oxozeaenol) [µM] | AUC (GSK269962A; [4]) | IC50 (GSK269962A; [4]) [µM]
HO-1-u-1 (head and neck, adherent) | 0.973 | > 10 | 0.988 | > 2.56 | 0.941 | > 10 | 0.988 | > 20 | 0.983 | > 5 | 0.852 | 7.42 | 0.3 | 0.00903 | 0.9 | > 5 | 0.912 | > 16 | 0.984 | > 1.02 | 0.93 | > 20 | 0.775 | 3.79 |  | 
Hep 3B2_1-7 (liver, adherent) | 0.89 | > 10 | 0.987 | > 2.56 | 0.978 | > 10 | 0.986 | > 20 | 0.986 | > 5 | 0.913 | > 10.2 | 0.135 | 0.00228 | 0.686 | 1.03 | 0.967 | > 16 | 0.982 | > 1.02 | 0.876 | 19.8 | 0.31 | 0.184 |  | 
HuP-T3 (pancreas, adherent) | 0.969 | > 10 | 0.975 | > 2.56 | 0.935 | > 10 | 0.979 | > 20 | 0.972 | > 5 | 0.762 | 4.46 | 0.418 | 0.0182 | 0.96 | > 5 | 0.833 | 13.7 | 0.981 | > 1.02 | 0.877 | > 20 | 0.527 | 0.753 |  | 
JEG-3 (urogenital system, adherent) | 0.981 | > 10 | 0.99 | > 2.56 | 0.99 | > 10 | 0.991 | > 20 | 0.991 | > 5 | 0.988 | > 10.2 | 0.287 | 0.00859 | 0.937 | > 5 | 0.988 | > 16 | 0.984 | > 1.02 | 0.991 | > 20 | 0.766 | 3.33 |  | 
JHU-011 (head and neck, adherent) | 0.931 | > 10 | 0.979 | > 2.56 | 0.981 | > 10 | 0.986 | > 20 | 0.972 | > 5 | 0.649 | 1.64 | 0.239 | 0.00574 | 0.965 | > 5 | 0.803 | 7.76 | 0.973 | > 1.02 | 0.86 | 16.3 | 0.579 | 1.02 |  | 
JHU-022 (head and neck, adherent) | 0.908 | > 10 | 0.98 | > 2.56 | 0.972 | > 10 | 0.971 | > 20 | 0.967 | > 5 | 0.853 | > 10.2 | 0.887 | > 0.512 | 0.909 | > 5 | 0.931 | > 16 | 0.979 | > 1.02 | 0.889 | > 20 | 0.599 | 1.26 |  | 
JIMT-1 (breast, adherent) | 0.967 | > 10 | 0.976 | > 2.56 | 0.955 | > 10 | 0.985 | > 20 | 0.974 | > 5 | 0.854 | 9.05 | 0.261 | 0.00622 | 0.923 | > 5 | 0.86 | 15.2 | 0.985 | > 1.02 | 0.961 | > 20 | 0.653 | 1.72 |  | 
KON (head and neck, adherent) | 0.965 | > 10 | 0.986 | > 2.56 | 0.982 | > 10 | 0.983 | > 20 | 0.987 | > 5 | 0.963 | > 10.2 | 0.199 | 0.00418 | 0.901 | > 5 | 0.98 | > 16 | 0.983 | > 1.02 | 0.983 | > 20 | 0.776 | 3.89 |  | 
KU-19-19 (bladder, adherent) | 0.927 | > 10 | 0.969 | > 2.56 | 0.862 | 8.6 | 0.986 | > 20 | 0.986 | > 5 | 0.93 | > 10.2 | 0.592 | 0.0574 | 0.871 | 4.68 | 0.937 | > 16 | 0.984 | > 1.02 | 0.987 | > 20 | 0.236 | 0.108 |  | 
KYM-1 (rhabdomyosarcoma, adherent) | 0.941 | > 10 | 0.991 | > 2.56 | 0.991 | > 10 | 0.991 | > 20 | 0.966 | > 5 | 0.78 | 3.59 | 0.158 | 0.00357 | 0.927 | > 5 | 0.93 | > 16 | 0.991 | > 1.02 | 0.979 | > 20 | 0.232 | 0.121 | 0.841 | 1.38
LN-18 (glioma, adherent) | 0.984 | > 10 | 0.994 | > 2.56 | 0.963 | > 10 | 0.994 | > 20 | 0.994 | > 5 | 0.975 | > 10.2 | 0.319 | 0.0112 | 0.936 | > 5 | 0.971 | > 16 | 0.992 | > 1.02 | 0.993 | > 20 | 0.825 | 4.54 |  | 

A lower IC50 marks a more sensitive line; fits outside the tested doses are given as limits. For AUC the same curve is integrated over the 256-fold range of doses and scaled to a fraction; values near 1 show little effect. For some assays here: An inferred top dose comes from the curve model; the source does not state it. For some assays here: Drugs with an entry number were screened twice under separate entries, and the two screens often disagree.
